# Measured values as given in US8153787B2 (priority 2005, dated 2012).
# Read-outs that look alike come from different tables or passages of the source.
# Tests used:
# HCV subgenomic replicon = test: microbe, parasite or virus in culture; conditions: Hepatitis C virus, Huh-5-2, read-out: EC50 HCV subgenomic replicon replication
# Herpesviruses = test: organism not typed; assay type: cell-based; conditions: read-out: EC50 against Herpesviruses
# [1] = test system: primary human keratinocytes
# in vitro = conditions: human
# [2] = CC50, growing RPTEC #4, 7 days, Medium refreshing
# [3] = CC50, growing RPTEC #4, 7 days, No medium refreshing
# [4] = CC50, resting RPTEC #4, 16 days
SMILES,CC50 (in vitro; [2]) [µg/mL],CC50 (in vitro; [3]) [µg/mL],"CC50 (in vitro; CC50, growing RPTEC #6, 5 days) [µg/mL]","CC50 (in vitro; CC50, growing RPTEC #6, 6 days) [µg/mL]","CC50 (in vitro; CC50, growing RPTEC #6, 7 days) [µg/mL]","CC50 (in vitro; CC50, growing RPTEC #6, 8 days) [µg/mL]",CC50 (in vitro; [4]) [µg/mL],"CC50 (in vitro; CC50, resting RPTEC #7, 5 days) [µg/mL]","CC50 (in vitro; CC50, resting RPTEC #7, 7 days) [µg/mL]",Cytotoxicity Cell morphology (MCC) HEL cells (HEL cells; human),Cytotoxicity Morphology (MCC) (HEL cells; human) [μg/ml],other results
"NC1=NC(=O)N(C[C@@H](CO)OCP(=O)(O)O)CN1 [5,6-dihydro derivative of HPMP-5-azaC, (S)-1-[3-Hydroxy-2-(phosphonomethoxy)propyl]-5,6-dihydro-5-azacytosine]",–,–,–,–,–,–,–,–,–,–,–,EC50 (HCV subgenomic replicon): 24 µg/mL; EC50 (Herpesviruses): 3 to 12 µg/mL
"Nc1nc2c(ncn2COCCO)c(=O)[nH]1 [Acyclovir, reference compound]",–,–,–,–,–,–,–,–,–,–,–,"Cytotoxicity Morphology (MCC) (HEL cells; Table 4, HEL cells): >100 μg/ml"
"Nc1ncn(C[C@@H](CO)OCP(=O)(O)O)c(=O)n1 [Compound 3, (S)-1-[3-hydroxy-2-(Phosphonomethoxy)propyl]-5-azacytosine]",> 50,> 50,≥ 200,≥ 200,136,149,> 50,≥ 200,≥ 200,>50,>100,MCC [1]: 50 µg/mL
"NC(=NC(=O)NC[C@@H](CO)OCP(=O)(O)O)NC=O.[Na] [Compound 3a, Sodium 3-formyl-2-{[(2S)-3-hydroxy-2-(phosphono-methoxy)propyl]carbamoyl}guanidine]",–,–,–,–,–,–,–,–,–,–,–,"CC50 at 7 days (in vitro; CC50, growing RPTEC #4, 7 days, Medium refreshing, growing RPTEC #4, 7 days of incubation): > 50 µg/mL; CC50 at 7 days (in vitro; CC50, growing RPTEC #4, 7 days, No medium refreshing, growing RPTEC #4, 7 days of incubation): > 50 µg/mL; CC50 at 5 days (in vitro; CC50, growing RPTEC #6, 5 days, Table 11 D, growing RPTEC #6, 5 days, without medium refreshing): > 200 µg/mL; CC50 at 6 days (in vitro; CC50, growing RPTEC #6, 6 days, Table 11 C, growing RPTEC #6, 6 days, without medium refreshing): > 200 µg/mL; CC50 at 7 days (in vitro; CC50, growing RPTEC #6, 7 days, Table 11 D, growing RPTEC #6, 7 days, without medium refreshing): > 200 µg/mL; CC50 at 8 days (in vitro; CC50, growing RPTEC #6, 8 days, Table 11 C, growing RPTEC #6, 8 days, without medium refreshing): > 200 µg/mL; CC50 at 16 days (in vitro; CC50, resting RPTEC #4, 16 days, resting RPTEC #4, 16 days of incubation without medium refreshing): > 50 µg/mL; CC50 at 5 days (in vitro; CC50, resting RPTEC #7, 5 days, Table 11 E, resting RPTEC #7, column head 5 days, without medium refreshing): > 200 µg/mL; CC50 at 7 days (in vitro; CC50, resting RPTEC #7, 7 days, Table 11 E, resting RPTEC #7, column head 7 days, without medium refreshing): > 200 µg/mL; Cytotoxicity Cell morphology (MCC) HEL cells (HEL cells; Table 1, HEL cells): 100; Cytotoxicity Morphology (MCC) (HEL cells; Table 2, HEL cells): >100 μg/ml"
"NC(N)=NC(=O)NC[C@@H](CO)OCP(=O)(O)O [Compound 10, 2-{[(2S)-3-Hydroxy-2-(Phosphonomethoxy)propyl]carbamoyl}guanidine]",> 50,> 50,> 200,> 200,> 200,> 200,> 50,> 200,> 200,–,–,–
"Nc1ncn(C[C@H]2COP(=O)(O)CO2)c(=O)n1 [Compound 11, 1-{[(5S)-2-Hydroxy-2-oxido-1,4,2-dioxaphosphinan-5-yl]methyl}-5-azacytosine]",–,–,–,–,–,–,–,–,–,>100,>100,–
"CCCCCCCCCCCCCCCCOCCOP1(=O)CO[C@@H](Cn2cnc(N)nc2=O)CO1 (stereo partly drawn) [Compound 12, hexadecyloxyethyl ester of 1-{[(5S)-2-Hydroxy-2-oxido-1,4,2-dioxaphosphinan-5-yl]methyl}-5-azacytosine]",–,–,–,–,–,–,–,–,–,>5,–,–
"CCCCCCCCCCCCCCCCCCOP1(=O)CO[C@@H](Cn2cnc(N)nc2=O)CO1 (stereo partly drawn) [Compound 15, octadecyl ester of 1-{[(5S)-2-hydroxy-2-oxido-1,4,2-dioxaphosphinan-5-yl]methyl}-5-azacytosine]",–,–,–,–,–,–,–,–,–,≧100,–,–
"Nc1cnn(C[C@@H](CO)OCP(=O)(O)O)c(=O)n1 [HPMP-6-azaC analogue, (S)-1-[3-hydroxy-2-(phosphonomethoxy)propyl]-6-azacytosine]",–,–,–,–,–,–,–,–,–,>100,>100,–
"Nc1ccn(C[C@@H](CO)OCP(=O)(O)O)c(=O)n1 [HPMPC, (S)-1-(3-hydroxy-2-phosphonylmethoxypropyl)cytosine, reference compound]",45.9,44.2,42.2,42.2,55.6,14.2,12.7,94.6,86.8,400,>100,MCC [1]: 50 µg/mL
